Data as given in PMC4336329 (PLoS ONE, 2015).
Out of some 310,000 compounds screened, about 14,000 (4.5%) showed an effect of 50% or more. Effects have a minus sign here. Some of the results follow.

molecular target: human ether-à-go-go-related gene (hERG) potassium channel (human, UniProt Q12809); assay: primary screen, population patch clamp on CHO cells stably expressing hERG
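Note: peak tail current of the secondary pulse compared with the same well before compound.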

Sequence of human ether-à-go-go-related gene (hERG) potassium channel (Q12809 whole entry, looked up): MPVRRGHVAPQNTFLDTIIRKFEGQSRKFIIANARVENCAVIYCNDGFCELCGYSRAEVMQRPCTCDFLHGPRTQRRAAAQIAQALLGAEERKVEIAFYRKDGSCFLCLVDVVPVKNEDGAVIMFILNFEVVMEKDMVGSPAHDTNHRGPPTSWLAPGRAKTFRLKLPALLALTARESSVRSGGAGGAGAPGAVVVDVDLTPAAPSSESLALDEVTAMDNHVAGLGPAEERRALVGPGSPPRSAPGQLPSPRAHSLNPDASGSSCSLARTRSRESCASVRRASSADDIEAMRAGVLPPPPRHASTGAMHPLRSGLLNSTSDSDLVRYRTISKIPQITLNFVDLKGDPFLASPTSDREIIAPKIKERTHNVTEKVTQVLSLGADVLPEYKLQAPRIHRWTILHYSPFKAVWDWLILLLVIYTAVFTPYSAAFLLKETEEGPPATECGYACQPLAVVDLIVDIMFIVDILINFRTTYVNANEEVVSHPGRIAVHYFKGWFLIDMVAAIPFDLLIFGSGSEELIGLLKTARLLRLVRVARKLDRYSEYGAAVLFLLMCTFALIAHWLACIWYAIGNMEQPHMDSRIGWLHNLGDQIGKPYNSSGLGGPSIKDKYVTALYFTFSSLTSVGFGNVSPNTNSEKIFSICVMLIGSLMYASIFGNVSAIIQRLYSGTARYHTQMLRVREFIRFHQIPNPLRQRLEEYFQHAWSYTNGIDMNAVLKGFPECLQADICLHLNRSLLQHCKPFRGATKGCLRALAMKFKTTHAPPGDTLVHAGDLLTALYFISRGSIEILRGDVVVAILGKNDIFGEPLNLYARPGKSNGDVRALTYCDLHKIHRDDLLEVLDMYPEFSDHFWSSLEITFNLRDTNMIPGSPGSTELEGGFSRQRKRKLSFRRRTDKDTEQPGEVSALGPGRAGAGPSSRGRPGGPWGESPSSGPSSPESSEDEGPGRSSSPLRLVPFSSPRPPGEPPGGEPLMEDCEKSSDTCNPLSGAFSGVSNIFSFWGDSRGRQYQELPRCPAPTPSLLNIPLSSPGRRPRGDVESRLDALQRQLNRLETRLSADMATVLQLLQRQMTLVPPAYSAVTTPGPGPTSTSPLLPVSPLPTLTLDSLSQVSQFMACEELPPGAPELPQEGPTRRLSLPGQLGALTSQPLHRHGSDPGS

Compound | hERG current change (%, negative = inhibition) at 10uM
Cc1ccc2nc(SCC(=O)c3c(C)[nH]c4ccccc34)[nH]c2c1 | 22.2%
COc1ccc(COC(=O)c2cccc(S(=O)(=O)N3CCCC3)c2)cc1F | 4.43%
O=C(COc1ccc(Cl)cc1)Nc1ccc(Cl)cn1 | -4.59%
O=C(CSc1nc2ncccc2[nH]1)c1ccc(F)cc1 | 4.57%
O=C(c1cc(=O)c2ccccc2o1)N1CCN(c2ccccc2F)CC1 | -15.3%
Cc1ccc(S(=O)(=O)NNC(=O)c2cccnc2)cc1 | 13.1%
COC(=O)c1c(C)oc2c1cc(NS(=O)(=O)c1ccc(C(=O)O)cc1)c1ccccc12 | 7.86%
COc1ccc(CCC(=O)NCc2ccccc2Cl)cc1OC | 15%
Cc1cc(C)cc(N(CC(=O)NC2CCC(C)CC2)S(=O)(=O)c2c(C)[nH]c(=O)[nH]c2=O)c1 (stereo not shown) | 14.4%
COc1ccc(S(=O)(=O)Cc2ccc(C(=O)NCCc3ccc(S(N)(=O)=O)cc3)o2)cc1 | 10.1%
CC(Oc1ccccc1)C(=O)N=Nc1c(O)[nH]c2ccc(Br)cc12 (stereo not shown) | 34.1%
Cc1ccc(-c2nn(CCC(N)=O)c(=O)c3ccccc23)cc1 | -18.6%
COC(=O)/C=C1\NCCNC1=O | 7.37%
Cc1nnc(SCC(=O)Nc2ccc([N+](=O)[O-])cc2)n1C | 2.98%
C/C(=N\NC(=O)c1cc(-c2cccc([N+](=O)[O-])c2)n[nH]1)c1ccc(F)cc1 | 8.28%
CCOC(=O)c1cc(-c2ccc(OC)cc2)nc2c1c(C)nn2CCC#N | -9.41%
O=C(NCCC1=CCCCC1)C(c1ccccc1)c1ccccc1 | 8.52%
CCCCn1c(N)c(N(CC(C)C)C(=O)C2CCN(S(=O)(=O)c3ccc(C)c(C)c3)CC2)c(=O)[nH]c1=O | -3.22%
CC(C)c1cccc(C(C)C)c1NC(=O)COC(=O)c1ccc(OCC(=O)Nc2cccc(C(F)(F)F)c2)cc1 | 11.7%
CC1CCC2(CC1)NC(=O)N(CC(=O)Nc1ccccc1-c1ccccc1)C2=O (stereo not shown) | -21.4%
O=C(CSc1nnc2ncccn12)N1CCCCCC1 | 6.85%
CC(Cl)C(=O)c1ccc2c(c1)CCN2C(=O)C1CC1 (stereo not shown) | -2.76%

Compound | hERG current change (%, negative = inhibition) at 10uM
CC(=O)C1=C(O)C(=O)N(c2cccnc2)C1c1cccc([N+](=O)[O-])c1 (stereo not shown) | -8.52%
C=CCN(CC=C)C(=S)NC(=O)c1ccc(OC)c(Br)c1 | 5.1%
CSC1=NCCN1C(=O)c1ccc(S(=O)(=O)N(C)C)cc1 | 4.69%
CCCCNC(=S)N/N=C/C1=CCC2CC1C2(C)C (stereo not shown) | 14%
CCOc1cccc(CNc2ccc(O)cc2)c1OCc1ccccc1Cl | 10.8%
CSc1ncc(Cl)c(C(=O)Nc2ccccc2C)n1 | 6.48%
COc1ccc(/C=C(\NC(=O)c2ccc(OC)cc2)C(=O)NC(CCSC)C(=O)O)cc1 (stereo not shown) | -11.7%
COc1ccccc1C(=O)Nc1ccc(S(=O)(=O)N2CCCCC2c2cccnc2)cc1 (stereo not shown) | -3.81%
COc1ccccc1CNCc1ccc(OC)c2ccccc12 | -37.8%
Cc1cc(N2C(=O)CC(Cc3ccc(Cl)cc3)C2=O)no1 (stereo not shown) | -0.604%
Cc1nc(C(F)(F)F)c(C(=O)O)cc1-c1nc(-c2ccccc2)cs1 | 41.7%
Cc1nc(SCN2C(=O)c3ccccc3C2=O)n[nH]1 | 15.2%
CC(=O)N(c1ccc2oc(=O)sc2c1)S(=O)(=O)c1cccc2cccnc12 | 5.98%
O=C(Cc1c(F)cccc1Cl)N(Cc1ccccc1)c1ccccn1 | -7.4%
COc1ccc(C(=O)Cn2c(=O)c(CCC(=O)O)nn3c4ccccc4nc23)cc1OC | 5.71%
Cc1sc2ncnc(SCC(=O)N3CCC(c4noc5ccc(F)cc45)CC3)c2c1C | 6.82%
Fc1ccc(Nc2nnc(C(F)(F)F)s2)cc1 | -0.326%
COC(=O)c1cc(-c2cccc([N+](=O)[O-])c2)c2c(=O)n(C)c(=O)n(C)c2n1 | 17.9%
COc1cc(NC(C)C(=O)N2CC(C)OC(C)C2)cc(OC)c1 (stereo not shown) | 5.18%
COc1ccc(CNC(=O)c2cnc3n(c2=O)CCS3)cc1 | -11.2%
CSCCC(Nc1ncnc2ccc(Br)cc12)C(=O)O.Cl (stereo not shown) | 16.3%
CC(Oc1cccc(Cl)c1)C(=O)Nc1cc(=O)n(C)c(=O)n1C (stereo not shown) | -16.8%

Compound | hERG current change (%, negative = inhibition) at 10uM
Cc1ccccc1C(=O)NC1CCN(CC(=O)NC2CCCCC2)CC1 | -5.04%
Cc1cc(-n2c(C)cc(C(=O)CSc3nc4ccccc4c(=O)n3Cc3ccco3)c2C)no1 | 16.4%
CCOCCCn1c(=NC(=O)c2ccco2)c(C(=O)OCC)cc2c(=O)n3cccc(C)c3nc21 | -74%
COCCCn1c(=O)c2ccccc2n(Cc2ccccc2C)c1=O | -13.6%
COC(=O)c1ccc(C2C(C(=O)c3cc4ccccc4o3)=C(O)C(=O)N2c2cc(C)on2)cc1 (stereo not shown) | 20.7%
COCCCN1C(=O)C(=O)/C(=C(/O)c2ccc(C)cc2)C1/C=C/c1ccccc1 (stereo not shown) | -2.75%
COc1cc(OC)c(C2CC(=O)N3CN(c4ccccc4C)CSC3=C2C#N)cc1OC (stereo not shown) | 1.28%
CN(C)CCCN(C(=O)c1cccs1)c1nc2cc3c(cc2s1)OCO3.Cl | -56.8%
CCCCn1cnc2c1c(=O)[nH]c(=O)n2CCCC | -7.83%
CCCN1C2CCCC1CC(NC(=O)c1ccc(C(C)(C)C)cc1)C2 (stereo not shown) | -37.1%
Cc1cccc(C(=O)Nc2oc(-c3ccccc3)cc2C#N)c1 | 15.3%
CC(C)Nc1ccc(Nc2ccccc2)cc1 | -0.32%
COc1ccccc1C(=O)NCC(=O)NC(C)c1ccc(-n2ccnc2)cc1 (stereo not shown) | -66.4%
CCN(CC)C(=O)c1ccc2c(c1[N+](=O)[O-])C(=O)c1ccccc1C2=O | 6.69%
COc1ccc(-c2csc(NC(=S)NC(=O)c3ccco3)n2)cc1Br | 38.2%
O=C1C(c2ccc(F)cc2)N(Cc2ccc3c(c2)OCO3)C(=O)CN1C1CCCCC1 (stereo not shown) | -37.4%
Cc1nc2ccc(S(=O)(=O)NCC(=O)NCCc3ccc(Cl)cc3)cc2s1 | 28.3%
COc1cc([N+](=O)[O-])ccc1NC(=O)C[n+]1ccccc1.[Cl-] | 3.05%
Cc1ccc(S(=O)(=O)/N=C(\CCl)N2CCOCC2)cc1 | 18.3%
COc1ccccc1CNC(=O)c1ccc2c(=O)n(CC3CCCO3)c(=S)[nH]c2c1 (stereo not shown) | 3.61%
CC(=O)Nc1ccc(NC(=O)COc2c(C)cc(Br)cc2C)cc1 | -0.246%
COCCn1c(=O)[nH]c2cc(C(=O)Nc3ccc(OC)c(Cl)c3)ccc2c1=O | 22.7%

Compound | hERG current change (%, negative = inhibition) at 10uM
CCOC(=O)c1ccc(NC(=O)c2c(O)[nH]c(=O)[nH]c2=O)cc1 | 12.7%
CC(=O)NC(CC(=O)Nc1cccc(S(=O)(=O)N2CCCCC2)c1)c1ccccc1 (stereo not shown) | -1.76%
Cc1cc(NC(=O)CSc2ccc3nnc(-c4ccc(Cl)cc4)n3n2)no1 | -3.45%
CCN(CC)C(=O)c1ccc(-c2nnc(Nc3ccc(C(=O)NC)cc3)c3ccccc23)cc1 | 4.57%
Cc1ccc(Cl)cc1N1CCN(S(=O)(=O)c2ccc3[nH]c(=O)c(=O)[nH]c3c2)CC1 | 18.5%
CCOC(=O)c1cc2c(c(CSc3nc4ccccc4c(=O)n3Cc3ccco3)c1)OCOC2 | 11.1%
COc1ccc(C2C(C(=O)Nc3ccccc3OC)=C(C)Nc3ncnn32)cc1 (stereo not shown) | -14.6%
COc1ccc(Cl)cc1NC(=O)C1CSC(c2ccncc2)=N1 (stereo not shown) | -4.19%
CCOC(=O)N1CCN(C(=O)CN(Cc2ccccc2)S(=O)(=O)c2ccc(OC)c(C)c2)CC1 | -24.5%
CN1CCN(c2nc3ccccn3c(=O)c2C=C2C(=O)N(C)C(=O)N(C)C2=O)CC1 | 10.5%
Cc1cc(C)cc(-n2nnn(C3C/C(=N/NC(N)=S)C4OCC3O4)c2=S)c1 (stereo not shown) | 12.3%
Cc1cc(C)cc(C(=O)OCC(=O)N2CCCCCC2)c1 | 7.01%
O=C(Oc1cccc2c(OC(=O)N3CCOCC3)cccc12)N1CCOCC1 | 12.5%
COc1ccc(N2CCN(C3CCCCC3NS(=O)(=O)c3ccccc3)CC2)cc1 (stereo not shown) | -2.38%
COc1ccc(C)cc1NC(=O)CNC(C)C(=O)Nc1ccc(C(C)=O)cc1 (stereo not shown) | -10.3%
CCN(Cc1nc2cc(Cl)ccc2c(=O)[nH]1)C(=O)COc1ccccc1Cc1ccccc1 | -20.7%
CC(C)(C)c1ccc(/C=N/NC(=O)C2CCCC2)cc1 | -12.3%
CN1CCN(CCCNC(=O)c2cc3c(=O)n(C)c4ccccc4c3s2)CC1 | 1.89%
Cc1ccc(-n2c(CNc3ccc(F)cc3)nnc2SCC(=O)N2CCCC2)cc1 | -31.7%
